Measurements taken from the supplement of paper PMC11417369.
± gives the standard deviation of the averaged measurements. Some of the results follow.

The sequences below were run on PfAP2-EXP AP2 domain (GST-tagged) (assay: gcPBM binding intensity (ln(normalized median fluorescence intensity)); higher = stronger DNA binding).
In short: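 The binding buffer was 1× PBS containing 1% milk, 0.2 mg/ml BSA, 0.5% salmon testes DNA and 0.03% Triton X-100. In it, GST-tagged P. falciparum DNA-binding domains expressed in E. coli were applied for 1 h to an Agilent 4 × 180k array of primer-extended double-stranded 36-bp intergenic genomic probes plus negative controls. Binding intensity, read with Alexa488 anti-GST antibody and a 488 nm scan, is the highest Masliner-normalised natural-log median intensity across replicate spots of either probe orientation.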
“AATAAAAAAAAAAAAAAAAAAAAAAACCTGAGGAGT [CACACA_negctrl_site1140]” was tested, and the “gcPBM binding intensity (ln)” value was 8.21 ± 0.71. For “TTATTCATAAAAACAAAAAACAAAAATGAAATAGGA [CACACA_negctrl_site1123]”, the “gcPBM binding intensity (ln)” value was 8.77 ± 0.56. “TATGATATAATATACACACATACATATATATATATA [CACACA_site510]” was tested, and the “gcPBM binding intensity (ln)” value was 9.96 ± 0.42. For “AGAGTTCTCCTATGCACACAAAAAACTTTCATTTAT [CACACA_site4193]”, the “gcPBM binding intensity (ln)” value was 8.46 ± 0.25. With “TTAATATTTTATTTCACACACATAAATGCCCCAAAC [CACACA_site1887]” the “gcPBM binding intensity (ln)” value was 9.14 ± 0.34. For “TATTATGTCTAAAATAACATATTAATATATTATTTC [CACACA_negctrl_site285]”, the “gcPBM binding intensity (ln)” value was 8.23 ± 0.38. For “AAATAATTTTTATTTGTACACACATACATATATATT [CACACA_site8240]”, the “gcPBM binding intensity (ln)” value was 8.46 ± 0.28. “TAAATAAAGATATATACACACATATTTATATTTATA [CACACA_site6431]” was tested, and the “gcPBM binding intensity (ln)” value was 8.1 ± 0.38. For “CATCATATAAATTCAAGTACAAGAAAAAGTAATATA [XGTACX_site2383]”, the “gcPBM binding intensity (ln)” value was 8.69 ± 0.45. For “ATATCTACTTTTTTATGTACGAAAAAAATACGGATT [XGTACX_site8937]”, the “gcPBM binding intensity (ln)” value was 8.65 ± 0.6. For “ACAAAATTGAAATTCACACAAAAACTATACTTTTTA [CACACA_site4638]”, the “gcPBM binding intensity (ln)” value was 8.05 ± 0.47. “TTTTTTTTTTTTTTTGTGCACAATATAATTTTTAAT [GTGCAC_site9747]” was tested, and the “gcPBM binding intensity (ln)” value was 8.755 ± 0.021. In the case of “TATATATATATTAATAGTACATATTATGTAAGCCTA [XGTACX_site2826]”, the “gcPBM binding intensity (ln)” value is reported as 9.43 ± 0.099. In the case of “ATAAAACAAATGAGTACACACACATAAAAATTGAAA [CACACA_site7949]”, the “gcPBM binding intensity (ln)” value is reported as 8.79 ± 0.35. With “AAAAAATACATACATACACACATATATATATATATA [CACACA_site913]” the “gcPBM binding intensity (ln)” value was 10.1 ± 0.31. For “TCCTCTTATAATTCGTGTCCACATATATCATACAAT [XGTACX_site1523]”, the “gcPBM binding intensity (ln)” value was 8.9 ± 0.45. For “TACGGATATATATATTGTACATATATATAATATATA [XGTACX_site3156]”, the “gcPBM binding intensity (ln)” value was 8.38 ± 0.29. “AGAAAAAAATAATGTACACACACATAGATGTTTATA [CACACA_site4271]” was tested, and the “gcPBM binding intensity (ln)” value was 8.33 ± 0.34. “TCAATAATAACAAATGAACACACATATATATGAGCA [CACACA_site8663]” was tested, and the “gcPBM binding intensity (ln)” value was 8.66 ± 0.44. In the case of “AAAAAAAAAAAAAAAAGTACACAGTAGAATTAAATG [XGTACX_site1843]”, the “gcPBM binding intensity (ln)” value is reported as 8.76 ± 0.4. With “ATAAGTAAATTAGATACACACATGATATCATACATA [CACACA_site1623]” the “gcPBM binding intensity (ln)” value was 8.53 ± 0.47. “GAACAATAAATAAAAAAAATAAAAATAAAAATAAAA [TGCATGCA_negctrl_site35]” was tested, and the “gcPBM binding intensity (ln)” value was 8.33 ± 0.55. In the case of “TTTTTTTTTTAATTAACACACATAAATATATATATA [CACACA_site3275]”, the “gcPBM binding intensity (ln)” value is reported as 9.31 ± 0.13. For “ATAAATTTTTTTTTTTTTTTTTTTCTTTTTCTTTGT [CACACA_negctrl_site1231]”, the “gcPBM binding intensity (ln)” value was 8.14 ± 0.54. For “ACTAAAGTGTATCACTGTACAATTCTTCTCTTTTTT [XGTACX_site8705]”, the “gcPBM binding intensity (ln)” value was 8.71 ± 0.35. “ACGTAATTAATTCATCAGATATAATTAATAATAATA [XGTACX_negctrl_site550]” was tested, and the “gcPBM binding intensity (ln)” value was 8.29 ± 0.42. “AATATATTTGTGTATGTGCGCAGTGTGTAATTTATT [GTGCAC_site9765]” was tested, and the “gcPBM binding intensity (ln)” value was 9.05 ± 0.41. In the case of “CATCTCATATTTTGAAGTACTAAGAAAAGATATAAA [XGTACX_site6867]”, the “gcPBM binding intensity (ln)” value is reported as 8.61 ± 0.42. With “TTTTCTTGACCTATTATTCTTCTCATAGTATAATAT [GTGCAC_negctrl_site641]” the “gcPBM binding intensity (ln)” value was 8.61 ± 0.45. In the case of “TAATATGCATAAAATTGTACAAACTTACATATAATA [XGTACX_site2752]”, the “gcPBM binding intensity (ln)” value is reported as 8.68 ± 0.49. In the case of “TTTTTTATAGGACATGCATGTTGTAGAGCTGTATAT [TGCATGCA_site704]”, the “gcPBM binding intensity (ln)” value is reported as 9.48 ± 0.48. “TTCATAGAATTATATATTTTAAAAAAAAAAATAATT [CACACA_negctrl_site175]” was tested, and the “gcPBM binding intensity (ln)” value was 7.88 ± 0.46. For ATTCATTTACCAATGGTGCAATATATTTTTATAATG, the “gcPBM binding intensity (ln)” value was 8.79 ± 0.13. With “TGTCAAAATATGTATACACACAATTTTTTTTTTTTT [CACACA_site2465]” the “gcPBM binding intensity (ln)” value was 8.54 ± 0.53. With “TTTTTCATAAGAAGCACACAAAAAATGATAGAGAAT [CACACA_site1417]” the “gcPBM binding intensity (ln)” value was 9.1 ± 0.52. With “TATATTACTTATATTTGTACACAGAAATATAAATCA [XGTACX_site13]” the “gcPBM binding intensity (ln)” value was 8.38 ± 0.33. With “TAATAAATAAAATAGAGTACAGGGATTTCATTAAAT [XGTACX_site8979]” the “gcPBM binding intensity (ln)” value was 8.65 ± 0.4. For “TGAAATACGAATTATTGTACTTATGTGTAAGATGGC [XGTACX_site4472]”, the “gcPBM binding intensity (ln)” value was 8.73 ± 0.38. In the case of “AAAAAAAAAATATATTGTACAAATAGATATGTCAAT [XGTACX_site122]”, the “gcPBM binding intensity (ln)” value is reported as 8.76 ± 0.33. With “AAAGAAAGTACCTTCACACATATAAGAATATAATAT [CACACA_site5214]” the “gcPBM binding intensity (ln)” value was 8.6 ± 0.52. In the case of “TTATTTTTTTTGTGTTGTACAATTTATTACTACTAA [XGTACX_site346]”, the “gcPBM binding intensity (ln)” value is reported as 8.82 ± 0.31. With “AATATATTTTAATATACACACATATATGCTCTTTAA [CACACA_site9371]” the “gcPBM binding intensity (ln)” value was 8.29 ± 0.35. With “GTATTTATAATACGGCGTACATAAAAAAAAAAAAAA [XGTACX_site3705]” the “gcPBM binding intensity (ln)” value was 8.51 ± 0.49. For “TTATTTATGTGTAGGGCATGCAATCGTGTTTTTAAA [TGCATGCA_site735]”, the “gcPBM binding intensity (ln)” value was 9.23 ± 0.41. “AAACAAATATGTAGCACACATTCACATAATATATTT [CACACA_site2335]” was tested, and the “gcPBM binding intensity (ln)” value was 8.77 ± 0.35. With “CAAAAAGATAAGGTGTGTACGTATTATAATTTTAAA [XGTACX_site531]” the “gcPBM binding intensity (ln)” value was 9.07 ± 0.89. In the case of TGAAATGATCTTTAGTTGCACTTAAAAATATATATA, the “gcPBM binding intensity (ln)” value is reported as 8.52 ± 0.2. With “ATTTAATTTTCCAAATGTACTTATATTTTTATGAAA [XGTACX_site6144]” the “gcPBM binding intensity (ln)” value was 8.59 ± 0.4. For “TAGATACATAAACACACACACACATACATATATACA [CACACA_site9139]”, the “gcPBM binding intensity (ln)” value was 8.68 ± 0.6. With “GGTATATAAAAATATTGTACTTAAAAAAATATGTAT [XGTACX_site6253]” the “gcPBM binding intensity (ln)” value was 8.48 ± 0.35. With TATTTCACTTTTTGTCTGCACTAAAATTTTATGGTA the “gcPBM binding intensity (ln)” value was 8.94 ± 0.35. For “AAGTATAGTCTTACATATATATATATATATATATAT [GTGCAC_negctrl_site280]”, the “gcPBM binding intensity (ln)” value was 10.1 ± 0.54. In the case of “TTTTGACTAATATAATATGTTAAGAATTAATAAATA [XGTACX_negctrl_site35]”, the “gcPBM binding intensity (ln)” value is reported as 8.05 ± 0.45. For “AAAAAAAAAAAAAACACACACATATATATAATATAT [CACACA_site3172]”, the “gcPBM binding intensity (ln)” value was 8.41 ± 0.54. “AGTATACTCAAACACACACACACAAAAAAAAAAAAA [CACACA_site4398]” was tested, and the “gcPBM binding intensity (ln)” value was 8.52 ± 0.42. For “TAAGAAATAAATAGTACACACATAGACACCCACCGA [CACACA_site1516]”, the “gcPBM binding intensity (ln)” value was 9.12 ± 0.39. For “ACAATATTATTATTTAACCATACACAATTATATGTC [XGTACX_negctrl_site378]”, the “gcPBM binding intensity (ln)” value was 8.32 ± 0.36.
